PubChem BioAssay AID493208 (National Center for Advancing Translational Sciences (NCATS), 2011)
The whole screen tested about 44,000 compounds, of which about 340 (0.77%) were called active. Roughly 5% stayed inconclusive and do not appear here. Calls follow the shape of the dose curve; as a rule, active = well fitted inhibition curve with a large enough effect; inconclusive = small, poorly fitted or top-dose-only effect; inactive = flat fitted curve, though single readings scatter. The list shows a part of the results.

Assay: Acumen qHTS Assay for Inhibitors of the mTORC1 Signaling Pathway in MEF (Tsc2-/-, p53-/-) Cells: Sytravon;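 also: plate controls were DMSO for no effect and rapamycin for full effect; nearly all actives have a fitted effect of over 50% in size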
Conditions: phospho-rpS6 immunofluorescence/PI, 24 h; series mostly up to 38.3 µM; activity change, negative = inhibition: at the top concentration
Procedure, shortened: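 Readout is phospho-S6 Alexa 488 signal normalized to PI per well, reported as % active cells with thresholds set from rapamycin (7.5 nM) and DMSO controls. Cells: Tsc2-/-, p53-/- MEFs, 24 hrs compound at 37 C; PI cell number serves as viability.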

Activity change, negative = inhibition, inactive:
CCCCC(=O)NC1CC(=O)N(c2ccc3c(c2)OCCO3)C1 (stereo unspecified) -3.44%, Cc1nc2c(-c3ccc(F)cc3)c(C)nn2c(C)c1CCC(=O)N1CCN(c2ccccc2)CC1 -3.54%, COC(=O)c1cc2oc3ccccc3c2n1Cc1nc(-c2ccc(Cl)cc2)oc1C 0.216%, CCN(C(=O)Cn1nnc2sc3c(c2c1=O)CCC(C(C)(C)C)C3)c1cccc(C)c1 (stereo unspecified) 4.28%, CCCCn1c(SCC(=O)c2ccccc2)nc2c(sc3ccccc32)c1=O 4.27%, CCc1ccc(CNC(=O)c2nn(-c3ccc(C)cc3)c(=O)c3c2c2ccccc2n3C)cc1 -0.862%, COc1cc(CCC(=O)NCc2ccc3c(c2)CCN3C(=O)c2ccccc2)cc(OC)c1OC -4.22%, CCC1CN(S(=O)(=O)c2cc(-c3cc(C)no3)ccc2C)c2cc(C)ccc2O1 (stereo unspecified) -10.3%, Cc1ccc(-n2nc3ccc(NC(=O)COc4ccccc4C)cc3n2)cc1 13%, COc1ccc(-c2nnc(SCC(=O)NCCc3ccc(OC)c(OC)c3)nc2-c2ccc(OC)cc2)cc1 -7.97%, Cc1nc2cccnc2n1-c1cccc(C(=O)N2CCN(c3cccc(Cl)c3)CC2)c1 -5.23%, Cc1ccc(C)c(N2CCN(S(=O)(=O)c3cc(-c4cc(C)no4)ccc3C)CC2)c1 1.58%, Cc1ccc(-c2nnc(Nc3cccc(Cl)c3)c3ccccc23)cc1S(=O)(=O)N1CCCCC1 3.58%, Cc1ccc(-n2nc(CO)c(C(=O)NCCCCc3ccccc3)n2)cc1C 0.0534%, CSc1ccc(CCNC(=O)c2cc(C)nc3c2c(C)nn3-c2ccccc2)cc1 -4.98%, O=C(CN1C(=O)C(c2ccc(F)cc2)=NC12CCCCCC2)Nc1ccccc1Cl 0.617%, Cc1cc(C)c(NC(=O)Cn2nc(-c3ccncc3)ccc2=O)c(C)c1 5.21%, CCCn1c(=O)n(-c2ccccc2Cl)c(=O)c2sc3ccccc3c21 1.3%, CC1=Nc2cc(C(=O)NCc3ccccc3Cl)ccc2Sc2c(C)ccc(C)c21 -16.6%, COc1ccc(C)cc1NC(=O)c1c2c(nc3ccccc13)C(=O)N(C1CCCCC1)C2 -11.5%, Cc1ccc(Cl)cc1NC(=O)C(Cc1ccccc1)NS(=O)(=O)c1cccc2nsnc12 (stereo unspecified) -14.2%, Cc1ccc(-c2cc3ncc(C(=O)c4cc(Cl)c(C)cc4O)cn3n2)cc1 -4.7%, CCOc1ccc(Br)cc1C1C(C(=O)OC)=C(C)NC2=C1C(=O)c1ccccc12 (stereo unspecified) 1.67%, CCN(C(=O)CSc1ncc2c(n1)-c1cc(Cl)ccc1N(Cc1ccccc1)S2(=O)=O)c1cccc(C)c1 8.29%, CCc1c(C)sc2c1CCN(C(=O)Nc1ccccc1C(=O)OC)C2c1ccc(OC)cc1 (stereo unspecified) 0%, Cc1ccc(NS(=O)(=O)c2ccc3c(c2)CC(=O)N3)cc1Cl 2.71%
